Measured values as given in PubChem BioAssay AID2100 (National Center for Advancing Translational Sciences (NCATS), 2009).
Several values for one entry are separate records, joined by “and”; a condition that tells them apart may be missing. Equal values may be shown once. About 1,200 (0.4%) of roughly 300,000 compounds were called active. Inconclusive results, whose numbers are uncertain, are shown with a selection of clear calls. The call rests on the fitted dose curve; in most records, active means well fitted inhibition curve with a large enough effect; inconclusive means small, poorly fitted or top-dose-only effect, or another doubt; inactive means no such curve, though single readings can be large or run the other way. Where the call is inconclusive, the potency comes from a doubtful curve fit.

molecular target: Lysosomal alpha-glucosidase (Homo sapiens) (UniProt P10253); experiment: qHTS Assay for Inhibitors and Activators of Human alpha-Glucosidase Cleavage of Glycogen; conditions: recombinant GAA, glycogen substrate, Amplex Red glucose oxidase fluorescence; activity change, negative = inhibition: at 76.4 µM (top of the series) unless noted;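 on activity change, negative = inhibition: 0% = full enzyme reaction and -100% = no-enzyme basal signal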
How it was run: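 Recombinant enzyme (4 nM final) with compounds titrated up to 77 uM and bovine liver glycogen (30 ug) in citrate pH 5.0, 0.01% Tween-20, 37 C 40 min. Released glucose detected by Amplex Red/glucose oxidase (Ex 573/Em 610); AC50 from Hill fits.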
Potency means the concentration at half of the fitted maximal effect.

Structure (SMILES)	activity change, negative = inhibition	Potency
CCCOc1cccc(-c2nn(-c3ccccc3)cc2/C=C(\C#N)C(=O)NCCCn2ccnc2)c1	inactive: -11%	–
O=c1cc(-c2ccccc2)[nH]c2[nH]n(-c3ccccc3)c(=O)c12	–	inconclusive: 35.5 µM [inhibitor, single point]
Cc1ccc(N2C(=O)CC(NNC(=O)c3cccc(S(=O)(=O)N4CCCC4)c3)C2=O)cc1 (stereo unspecified)	–	inconclusive: 25.1 µM [inhibitor, partial curve]
O=C(O)c1cccc(N/N=C/c2cccnc2)c1	–	inconclusive: 7.94 µM [inhibitor, partial curve]
COc1cccc(CNc2ccc(Br)cn2)c1O	–	inconclusive: 9.92 µM [inhibitor, partial curve]
CCn1c(C)nc2cc(C(=O)NNC(=S)Nc3ccc(F)cc3)ccc21	–	inconclusive: 39.8 µM [inhibitor, single point]
CCCCn1c(NCc2ccc(N(C)C)cc2)nc2ccccc21	–	inconclusive: 28.2 µM [inhibitor, partial curve]
COc1ccc(C2NC(=S)NC3=C2CCc2cc(OC)ccc23)cc1 (stereo unspecified)	–	inconclusive: 14.1 µM [inhibitor, partial curve]
Cc1nc(NC(=O)c2ccccc2)sc1-c1csc(NCc2ccccc2)n1	–	inconclusive: 35.5 µM [inhibitor, single point]
COC1=C/C(=C/c2c(O)c(C#N)c3ccccn23)C=CC1=O	–	inconclusive: 39.8 µM [inhibitor, single point]
Cc1cccc2nc(-c3cccnc3)c(NCCC(C)C)n12	–	inconclusive: 14 µM [inhibitor, partial curve]
COc1ccc(C(=O)CN2C(=O)c3ccccc3S2(=O)=O)cc1Br	inactive: -10.6% [at 76.3 µM]	–
CCOC(=O)c1ccc(-n2[nH]c(-c3ccccc3)cc2=O)cc1	–	inconclusive: 50.1 µM [inhibitor, single point]
COc1cc(/C=N/Nc2ccc(C(F)(F)F)cn2)ccc1O	–	inconclusive: 14 µM [inhibitor, partial curve]
COc1cccc(/C=N/Nc2nc3ccccc3[nH]2)c1OC	–	inconclusive: 14.1 µM [inhibitor, partial curve, poor fit]
O=C1CCCC/C1=C\Nc1ccc(O)cc1	–	active: 8.84 µM
CN(C)c1ccc(CNC(=O)CCS(=O)(=O)c2ccc3c(c2)n(C)c(=O)c(=O)n3C)cc1	–	inconclusive: 7.94 µM [inhibitor, full curve]
O=C(NNC(=S)NCCc1ccccc1)c1ccc(Br)s1	–	active: 35.5 µM
Cc1ccc(S(=O)(=O)Nc2c(C(=O)O)[nH]c3ccccc23)cc1C	–	inconclusive: 11.2 µM [inhibitor, single point]
Cc1ccc(-n2nc(C(=O)Nc3ccc(C)c(F)c3)c3c4ccccc4n(C)c3c2=O)cc1	–	inconclusive: 7.08 µM [inhibitor, partial curve]
C/C(=N\Nc1nc(C)cc(-c2ccccc2)n1)c1ccc(C)o1	–	inconclusive: 20 µM [inhibitor, partial curve]

Structure (SMILES)	activity change, negative = inhibition	Potency
Cc1ccc(C(=O)Nc2onc3c2CCCC3)cc1	inactive: -1.89% [at 76.3 µM]	–
COC(=O)c1c(C)[nH]c(C)c1-c1ccccc1Cl	–	inconclusive: 22.2 µM [inhibitor, partial curve]
CSc1ccc(CNC(=O)CCn2c(=O)c3cccn3c3ccc(F)cc32)cc1	–	inconclusive: 50.1 µM [inhibitor, single point]
COc1cc(C2C(C(=O)c3ccc(C)o3)=C(O)C(=O)N2Cc2cccnc2)ccc1O (stereo unspecified)	–	inconclusive: 39.5 µM [inhibitor, single point]
COc1ccc(-c2cn3nc(N4CCCC(C(=O)NCc5ccccc5OC)C4)sc3n2)cc1 (stereo unspecified)	–	inconclusive: 11.2 µM [inhibitor, single point]
Cc1ccsc1CN1CC(=O)N(c2c(C)cccc2C)C1=S	–	inconclusive: 28.2 µM [inhibitor, single point]
CCOC(=O)c1cc(CC)sc1NC(=O)C1CC(=O)NN1Cc1ccccc1 (stereo unspecified)	–	inconclusive: 35.5 µM [inhibitor, single point]
O=C(NCC1CCCO1)c1nc(Cn2ccc([N+](=O)[O-])n2)no1 (stereo unspecified)	–	inconclusive: 11.2 µM [inhibitor, single point]
CCOCCCn1c(=N)c(C(N)=S)cc2c(=O)n3cccc(C)c3nc21	inactive: -11%	–
N#C/C(=C/c1ccco1)C(N)=S	–	inconclusive: 39.5 µM [inhibitor, single point]
CCN1CCCc2cc(CN(CCN3CCOCC3)C(=S)Nc3cccc(Cl)c3)ccc21	–	inconclusive: 3.14 µM [inhibitor, single point]
CN(C)c1ccc(CNS(=O)(=O)c2ccc3c(c2)C(C)(C)C(=O)N3C)cc1	–	inconclusive: 22.4 µM [inhibitor, partial curve]
O=C1CSC(=S)N1N=C1CCCCCC1	–	inconclusive: 3.14 µM [inhibitor, full curve]
O=C(NCCO)c1ccc(-c2nnc(Nc3ccc(O)cc3)c3ccccc23)cc1	–	inconclusive: 6.31 µM [inhibitor, single point]
CCOc1ccc(N2CSC(=S)N(c3ccc(OCC)cc3)C2)cc1	–	inconclusive: 19.8 µM [inhibitor, partial curve]
Cc1ccc(S(=O)(=O)Nc2ccc(N3CCOCC3)nc2)cc1	–	inconclusive: 17.8 µM [inhibitor, single point]
Cc1ccc(C(O)(C(=O)NNc2ccc3ccccc3n2)c2ccc(C)cc2)cc1	–	inconclusive: 15.7 µM [inhibitor, partial curve] and inconclusive: 35.5 µM [inhibitor, single point]
Cc1cc(NC(=O)CSc2nnc(C3COc4ccccc4O3)n2C)no1 (stereo unspecified)	–	inconclusive: 11.2 µM [inhibitor, single point]
CCOc1ccccc1C1C2=C(COC2=O)Nc2cc3c(cc21)OCO3 (stereo unspecified)	–	inconclusive: 28.2 µM [inhibitor, partial curve]
CC1(C)CC(OC(=O)c2ccco2)CC(C)(C)N1O	–	inconclusive: 35.5 µM [inhibitor, single point]
